# Assay results reported in the supplement of paper PMC8728848.
# The list shows a part of the results.
# B1: LecB LY19 (Pseudomonas aeruginosa) (protein)
# chain: MATQGVFTLPANTQFGVTAFANSAGTQTVNVQVNNETVATFTGQSTNNGIIGSKVLNSGGGGKVQILVSVNGRSSDLVSAQVILANELNFALVGSEDSTDNDYNDAVVVINWPLG
# How the values were obtained:
# Test in all cases: glycan array binding signal (z-score within array); higher = stronger binding
# Conditions in all cases: glycan notation: IUPAC condensed, linker removed
# [1] = target: Gal(b1-4)GlcNAc(b1-3)Gal(b1-4)GlcNAc(b1-6)[Gal(b1-3)]GalNAc
# Summary of the method: (§1)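 From the Consortium for Functional Glycomics database, 3228 arrays were curated, keeping only those whose protein sequence was available. Binding is given as a within-array Z-score averaged across arrays sharing a protein sequence and across linkers. Negative Z-scores can be read as non-binding.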
# [2] = target: Gal(b1-4)GlcNAc(b1-3)Gal(b1-4)[Fuc(a1-3)]GlcNAc(b1-3)Gal(b1-4)[Fuc(a1-3)]GlcNAc
# Summary of the method: as §1
# [3] = target: Gal(b1-4)GlcNAc(b1-3)GalNAc
# Summary of the method: as §1
# [4] = target: Gal(b1-4)GlcNAc(b1-3)[Fuc(a1-3)GlcNAc(b1-6)]Gal(b1-4)Glc
# Summary of the method: as §1
# [5] = target: Gal(b1-4)GlcNAc(b1-3)[Gal(b1-4)GlcNAc(b1-6)]Gal(b1-4)GlcNAc
# Summary of the method: as §1
# [6] = target: Gal(b1-4)GlcNAc(b1-3)[GlcNAc(b1-6)]Gal(b1-4)GlcNAc
# Summary of the method: as §1
# [7] = target: Gal(b1-4)GlcNAc(b1-6)Gal(b1-4)GlcNAc
# Summary of the method: as §1
# [8] = target: Gal(b1-4)GlcNAc(b1-6)GalNAc
# Summary of the method: as §1
# [9] = target: Gal(b1-4)GlcNAc(b1-6)[Gal(b1-3)]GalNAc
# Summary of the method: as §1
# [10] = target: Gal(b1-4)GlcNAc(b1-6)[Gal(b1-4)GlcNAc(b1-3)]GalNAc
# Summary of the method: as §1
# Gal(b1-4)GlcNAc6P = target: Gal(b1-4)GlcNAc6P
# Summary of the method: as §1
# Gal(b1-6)Gal = target: Gal(b1-6)Gal
# Summary of the method: as §1
# Gal3S(b1-3)GalNAc = target: Gal3S(b1-3)GalNAc
# Summary of the method: as §1
# Gal3S(b1-3)GlcNAc = target: Gal3S(b1-3)GlcNAc
# Summary of the method: as §1
# [11] = target: Gal3S(b1-3)[Fuc(a1-4)]GlcNAc
# Summary of the method: as §1
# Gal3S(b1-4)Glc = target: Gal3S(b1-4)Glc
# Summary of the method: as §1
# Gal3S(b1-4)Glc6S = target: Gal3S(b1-4)Glc6S
# Summary of the method: as §1
# Gal3S(b1-4)GlcNAc = target: Gal3S(b1-4)GlcNAc
# Summary of the method: as §1
# [12] = target: Gal3S(b1-4)[Fuc(a1-3)]Glc6S
# Summary of the method: as §1
# [13] = target: Gal3S(b1-4)[Fuc(a1-3)]GlcNAc
# Summary of the method: as §1
# [14] = target: Gal3S(b1-4)[Fuc(a1-3)]GlcNAc6S
# Summary of the method: as §1
# Gal3S4S(b1-4)GlcNAc = target: Gal3S4S(b1-4)GlcNAc
# Summary of the method: as §1
# Gal3S6S(b1-4)GlcNAc = target: Gal3S6S(b1-4)GlcNAc
# Summary of the method: as §1
# Gal3S6S(b1-4)GlcNAc6S = target: Gal3S6S(b1-4)GlcNAc6S
# Summary of the method: as §1
# Gal4S(b1-4)GlcNAc = target: Gal4S(b1-4)GlcNAc
# Summary of the method: as §1
# Gal4S6S(b1-4)GlcNAc = target: Gal4S6S(b1-4)GlcNAc
# Summary of the method: as §1
# Gal6P(b1-4)GlcNAc = target: Gal6P(b1-4)GlcNAc
# Summary of the method: as §1
# Gal6S(b1-3)GlcNAc = target: Gal6S(b1-3)GlcNAc
# Summary of the method: as §1
# Gal6S(b1-3)GlcNAc6S = target: Gal6S(b1-3)GlcNAc6S
# Summary of the method: as §1
# Gal6S(b1-4)Glc = target: Gal6S(b1-4)Glc
# Summary of the method: as §1
# Gal6S(b1-4)Glc6S = target: Gal6S(b1-4)Glc6S
# Summary of the method: as §1
# Gal6S(b1-4)GlcNAc = target: Gal6S(b1-4)GlcNAc
# Summary of the method: as §1
# Gal6S(b1-4)GlcNAc6S = target: Gal6S(b1-4)GlcNAc6S
# Summary of the method: as §1
# GalNAc(a1-3)Gal = target: GalNAc(a1-3)Gal
# Summary of the method: as §1
# GalNAc(a1-3)GalNAc = target: GalNAc(a1-3)GalNAc
# Summary of the method: as §1
# [15] = target: GalNAc(a1-3)GalNAc(b1-3)Gal(a1-4)Gal(b1-4)Glc
# Summary of the method: as §1
# [16] = target: GalNAc(a1-3)GalNAc(b1-3)Gal(a1-4)Gal(b1-4)GlcNAc
# Summary of the method: as §1
# GalNAc(b1-3)Gal = target: GalNAc(b1-3)Gal
# Summary of the method: as §1
# [17] = target: GalNAc(b1-3)Gal(a1-4)Gal(b1-4)GlcNAc
# Summary of the method: as §1
# [18] = target: GalNAc(b1-3)Gal(a1-4)Gal(b1-4)GlcNAc(b1-3)Gal(b1-4)Glc
# Summary of the method: as §1
# [19] = target: GalNAc(b1-3)Gal(a1-6)Gal(b1-4)Glc
# Summary of the method: as §1
# GalNAc(b1-3)GalNAc = target: GalNAc(b1-3)GalNAc
# Summary of the method: as §1
# GalNAc(b1-3)GlcNAc = target: GalNAc(b1-3)GlcNAc
# Summary of the method: as §1
# GalNAc(b1-4)Gal(b1-4)Glc = target: GalNAc(b1-4)Gal(b1-4)Glc
# Summary of the method: as §1
# GalNAc(b1-4)GlcNAc = target: GalNAc(b1-4)GlcNAc
# Summary of the method: as §1
binder,measurement,setting,value
B1,glycan array binding signal (z-score),[1],-0.545
same,glycan array binding signal (z-score),[2],1.65
same,glycan array binding signal (z-score),[3],-0.546
same,glycan array binding signal (z-score),[4],0.408
same,glycan array binding signal (z-score),[5],-0.555
same,glycan array binding signal (z-score),[6],0.575
same,glycan array binding signal (z-score),[7],-0.533
same,glycan array binding signal (z-score),[8],-0.411
same,glycan array binding signal (z-score),[9],-0.44
same,glycan array binding signal (z-score),[10],-0.539
same,glycan array binding signal (z-score),Gal(b1-4)GlcNAc6P,-0.555
same,glycan array binding signal (z-score),Gal(b1-6)Gal,-0.534
same,glycan array binding signal (z-score),Gal3S(b1-3)GalNAc,-0.481
same,glycan array binding signal (z-score),Gal3S(b1-3)GlcNAc,-0.54
same,glycan array binding signal (z-score),[11],3.07
same,glycan array binding signal (z-score),Gal3S(b1-4)Glc,-0.531
same,glycan array binding signal (z-score),Gal3S(b1-4)Glc6S,-0.527
same,glycan array binding signal (z-score),Gal3S(b1-4)GlcNAc,-0.543
same,glycan array binding signal (z-score),[12],0.665
same,glycan array binding signal (z-score),[13],1.42
same,glycan array binding signal (z-score),[14],-0.545
same,glycan array binding signal (z-score),Gal3S4S(b1-4)GlcNAc,-0.54
same,glycan array binding signal (z-score),Gal3S6S(b1-4)GlcNAc,-0.554
same,glycan array binding signal (z-score),Gal3S6S(b1-4)GlcNAc6S,-0.551
same,glycan array binding signal (z-score),Gal4S(b1-4)GlcNAc,-0.518
same,glycan array binding signal (z-score),Gal4S6S(b1-4)GlcNAc,-0.547
same,glycan array binding signal (z-score),Gal6P(b1-4)GlcNAc,-0.549
same,glycan array binding signal (z-score),Gal6S(b1-3)GlcNAc,-0.555
same,glycan array binding signal (z-score),Gal6S(b1-3)GlcNAc6S,-0.559
same,glycan array binding signal (z-score),Gal6S(b1-4)Glc,-0.53
same,glycan array binding signal (z-score),Gal6S(b1-4)Glc6S,-0.533
same,glycan array binding signal (z-score),Gal6S(b1-4)GlcNAc,-0.544
same,glycan array binding signal (z-score),Gal6S(b1-4)GlcNAc6S,-0.555
same,glycan array binding signal (z-score),GalNAc(a1-3)Gal,-0.483
same,glycan array binding signal (z-score),GalNAc(a1-3)GalNAc,-0.513
same,glycan array binding signal (z-score),[15],-0.524
same,glycan array binding signal (z-score),[16],-0.444
same,glycan array binding signal (z-score),GalNAc(b1-3)Gal,-0.536
same,glycan array binding signal (z-score),[17],-0.547
same,glycan array binding signal (z-score),[18],-0.558
same,glycan array binding signal (z-score),[19],-0.516
same,glycan array binding signal (z-score),GalNAc(b1-3)GalNAc,-0.376
same,glycan array binding signal (z-score),GalNAc(b1-3)GlcNAc,-0.555
same,glycan array binding signal (z-score),GalNAc(b1-4)Gal(b1-4)Glc,-0.53
same,glycan array binding signal (z-score),GalNAc(b1-4)GlcNAc,-0.549
